# Test results as given in PubChem BioAssay AID1345082 (National Center for Advancing Translational Sciences (NCATS), 2018).
# “And” between values parts separate entries of the source, which are not always exact repeats. Equal entries are not always repeated. The whole screen tested about 94,000 compounds, of which about 4,000 (4.3%) were called active. The inconclusive results got no clear call from the source; some entries with a clear call stand among them for comparison. Calls come from the whole dose curve; as a rule, active = well fitted inhibition curve with a large enough effect; inconclusive = small, poorly fitted or top-dose-only effect; inactive = no such curve, though single readings can be large or run the other way. Where the call is inconclusive, the potency comes from a doubtful curve fit.
# Experiment: Cytotoxic Profiling in NIH 3T3 Cell Line of Diverse Libraries Using Quantitative High-Throughput Screening; note: nearly all actives have a fitted effect of over 55% in size
# Conditions: NIH 3T3 viability, CellTiter-Glo ATP luminescence, 48-72 h; activity change, negative = cytotoxicity: at 96.7 µM (top of the series) unless noted; series mostly up to 96.7 µM
# Outline: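 Mouse fibroblast NIH 3T3 cells, 400 per well, received compound via pintool and were incubated for 48 or 72 hr prior to CellTiter-Glo ATP luminescence measurement.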
# % is set by controls: 0 for no effect and ±100 for the full control effect; potency is the fitted concentration of half-maximal effect; tags give direction and shape of the fitted curve.
Compound,Potency,outcome,"activity change, negative = cytotoxicity"
COCc1ccc2c(c1)c(OC(C)(C)C(=O)N1CCN(C)CC1)nn2Cc1cccnc1,"inconclusive: 89.1 µM [inhibitor, partial curve]",–,–
CN(C1CCc2ccccc2C1)[S+](=O)([O-])c1cccs1 (stereo not given),"inconclusive: 112 µM [inhibitor, single point]",–,–
CC1=C[C@@H](CNC(C)C)[C@H](C(C)C)C[C@H]1Cc1nnc(-c2ccc([N+](=O)[O-])cc2)o1,active: 89.1 µM,–,–
CCn1ncc(NC(=O)Cn2ncc3cc(-c4ccc(N(C)C)cc4)ccc32)n1,"inconclusive: 8.91 µM [inhibitor, full curve]",–,–
O=C(NCCc1ccc(F)cc1)C1CCCCN1Cc1ccc(-c2ccsc2)cc1 (stereo not given),active: 31.6 µM,–,–
O=C(COc1ccccc1)NC1CCN(c2cc(-c3ccccc3)[nH]n2)CC1,"inconclusive: 44.7 µM [inhibitor, partial curve, poor fit]",–,–
COCCOC1CCOC2(CCN(C(=O)COc3ccccc3)CC2)C1 (stereo not given),–,inactive,–
COc1ccc2c(c1)CN(C(=O)C1CCCC1)CC[C@H]1COC(=O)N21,"inconclusive: 56.2 µM [inhibitor, partial curve, poor fit]",–,–
COCCNC(=O)C1CCN(c2nccc(Nc3ccccc3OC)n2)CC1,"inconclusive: 50.1 µM [inhibitor, partial curve, poor fit]",–,–
Cc1ccc(C(=O)N2CCCC(c3nc(-c4cccnc4)no3)CCNC(=O)CC2)s1 (stereo not given),–,–,inactive: -10%
CCn1nc(C)c(CCN(C)C(=O)C2CCN(c3cnn(Cc4ccccc4)c(=O)c3)C2)c1C (stereo not given),–,–,inactive: -31.3%
c1ccc2c(-c3nc4ccncc4[nH]3)c[nH]c2c1,"inconclusive: 112 µM [inhibitor, partial curve] and inconclusive: 56.2 µM [inhibitor, partial curve, poor fit]",–,–
N#Cc1cccc(CN2CCc3nc(C(=O)NCC4CC4)oc3CC2)c1,"inconclusive: 89.1 µM [inhibitor, partial curve]",–,–
CCCN1CC[C@H]2COC(=O)N2c2cc(F)ccc2C1,–,–,inactive: -8.86% [at 230 µM]
O=C(C1CCC1)N1CCCC(n2cc(-c3nc(-c4ccccc4)no3)nn2)C1 (stereo not given),"inconclusive: 39.8 µM [inhibitor, partial curve]",–,–
CC1(CNc2ccccc2)COc2ccc(C(=O)NC3CCOCC3)cc2N1 (stereo not given),"inconclusive: 100 µM [inhibitor, partial curve, poor fit]",–,–
O=C(Nc1ccc(Oc2ccccc2)cc1)O[C@@H]1CO[C@H]2[C@@H]1OC[C@@H]2NCC1CCCCC1,"inconclusive: 56.2 µM [inhibitor, partial curve, poor fit]",–,–
CSc1cccc(NC(=O)N[C@H]2CCN(C(=O)c3cccn3C)[C@@H]2C(=O)N[C@@H](Cc2cccs2)C(N)=O)c1,–,–,inactive: -7.69%
O=C(NC1CCCN(c2ccnc3ccnn23)C1)c1ccncc1 (stereo not given),–,–,inactive: -28.4% [at 138 µM]
N#Cc1cccnc1N1CCCC(CO)(Cc2ccc(F)cc2F)C1 (stereo not given),"inconclusive: 39.8 µM [inhibitor, full curve, poor fit]",–,–
Cn1cccc1CN1CCCC12Cc1ccccc1CNC2=O (stereo not given),"inconclusive: 89.1 µM [inhibitor, single point]",–,–
O=C(NCc1ccccc1)c1nc2sccn2c1-c1ccc(F)cc1,–,–,inactive: -9.25%

Compound,Potency,outcome,"activity change, negative = cytotoxicity"
Cc1ccc(C(=O)N2CCc3onc(-c4cccc5ccccc45)c3C2)cc1,"inconclusive: 79.4 µM [inhibitor, partial curve]",–,–
Cc1cc(C)c(C(=O)N2CCCC(Nc3ccccc3)C2)cc1C (stereo not given),"inconclusive: 50.1 µM [inhibitor, partial curve, poor fit]",–,–
Cc1noc2c(-c3cccnc3NCc3cccnc3)cc(-c3ccccc3)nc12,"inconclusive: 50.1 µM [inhibitor, full curve]",–,–
CC1=NS(=O)(=O)N(Cc2ccccc2)C=C1C(=O)OCc1nc(-c2ccc3c(c2)OCO3)no1,"inconclusive: 17.8 µM [inhibitor, full curve, poor fit]",–,–
CSc1ccccc1NC(=O)c1cnc(-c2ccc(C)cc2)nc1-c1ccncc1,"inconclusive: 50.1 µM [inhibitor, partial curve, poor fit]",–,–
COc1cccc(CN2CCc3c(cc(C(=O)N4CCN(CC(C)C)CC4)n3C)C2)c1,"inconclusive: 50.1 µM [inhibitor, partial curve, poor fit]",–,–
O=C(NC1CCN(c2cc(-c3ccc(Cl)cc3)[nH]n2)C1)c1ccc2c(c1)OCO2 (stereo not given),"inconclusive: 70.8 µM [inhibitor, single point]",–,–
CC(NC(=O)C1CCN(C(=O)c2ncn3c2COC(c2ccccc2)C3)CC1)c1ccc(F)cc1 (stereo not given),–,–,inactive: 0.359%
COc1ccccc1C(=O)N1CCCC2(COc3ccccc3C(=O)N2)C1 (stereo not given),"inconclusive: 56.2 µM [inhibitor, partial curve, poor fit]",–,–
Cc1nn(-c2ccccc2)c2c1C(C1CC1)N(CC1CN(C(=O)c3ccc(Cl)cc3)C1)C2=O (stereo not given),"inconclusive: 79.4 µM [inhibitor, partial curve, poor fit]",–,–
Cc1n[nH]c(C)c1C(N)C(=O)NCc1cc(C(F)(F)F)ccc1F (stereo not given),–,–,inactive: -15.3%
O=C(NCCc1ccc(Cl)cc1)c1cc(-c2ccccc2)c2nncn2n1,"inconclusive: 50.1 µM [inhibitor, partial curve, poor fit]",–,–
O=C(Nc1cccc(F)c1)N1CCc2c(c3ccccc3n2CC2CC2)C1,active: 25.1 µM,–,–
COc1cccc(CN2C[C@@H](CO)[C@H](NC(=O)c3ccccc3)C2)c1,"inconclusive: 70.8 µM [inhibitor, single point]",–,–
Cc1cnc(CCNC(=O)C2(c3ccccc3)CC2)n1C1CCCCCC1,"inconclusive: 50.1 µM [inhibitor, partial curve, poor fit]",–,–
O=C1c2cccnc2OC2(CCCC2)CN1CCOc1ccccc1,–,–,inactive: -16.3% [at 46.1 µM]
Clc1ccccc1CN1CC[C@H](c2nnc(-c3ccccc3)o2)C1,–,–,inactive: -24.6% [at 174 µM]
O=C([C@@H]1C[C@H](F)CN1C(=O)Cc1ccc(OC(F)(F)F)cc1)N1CCCCC1,–,–,inactive: -18.9%
Cc1cc(OC2CN(C(=O)c3ccccc3F)C2)ccc1F,"inconclusive: 56.2 µM [inhibitor, partial curve, poor fit]",–,–
Cc1ccc(Nc2ccnc(N3CCCC(C(=O)NCCc4ccccc4)C3)n2)cc1 (stereo not given),active: 28.2 µM,–,–
C[C@H]1[C@@H]2[C@@H](O)[C@H]([C@H](C)C(=O)N3CCCCC3)CC[C@@]2(C)CC[C@@H]1NC(=O)c1cncnc1,"inconclusive: 50.1 µM [inhibitor, partial curve, poor fit]",–,–
COCCN1C[C@H]2COc3cc(OC)ccc3[C@H]2N(C(=O)c2ccccc2OC)CCC1=O,"inconclusive: 70.8 µM [inhibitor, single point]",–,–

Compound,Potency,outcome,"activity change, negative = cytotoxicity"
O=C(NCCCc1nc2ccccc2[nH]1)C1CC(=O)N(c2n[nH]c3ccccc23)C1 (stereo not given),–,–,inactive: -16.4%
c1csc(-c2ccnc(N[C@H]3CO[C@H]4[C@@H]3OC[C@@H]4NCC3CCCCC3)n2)c1,active: 31.6 µM,–,–
COc1cccc(-c2ccc(-c3nc(C4CCOC4)no3)o2)c1 (stereo not given),"inconclusive: 79.4 µM [inhibitor, partial curve, poor fit]",–,–
CCC(=O)N1Cc2ccccc2CC2(CCN(CC3CCOCC3)C2)C1 (stereo not given),–,–,inactive: -29.1%
O=C(NCc1nc(-c2cccc(F)c2)c(-c2ccccn2)[nH]1)[C@@H]1C[C@@H](O)CN1,–,–,inactive: -17%
Cc1ccc(C2Cn3nnc(C(=O)N4CCC(C(=O)Nc5cc(F)cc(F)c5)CC4)c3CO2)cc1 (stereo not given),–,inactive,–
O=C(c1ccc2c(c1)[nH]c(=O)n2C1CCC(O)CC1)N1CC[C@H]2CNC[C@H]21 (stereo not given in full),–,–,inactive: -0.835%
c1cn(CC2COCCO2)c(-c2cc3n(n2)CCCNC3)n1 (stereo not given),–,–,inactive: 3.61%
COCc1ncc(C)n1CCC1CCN(C(=O)c2cccnc2C)CC1,–,–,inactive: -24.9%
COc1ccccc1CN1CCCn2nc(C)c(-c3cccnc3N3CCOCC3)c21,"inconclusive: 22.4 µM [inhibitor, full curve, poor fit]",–,–
COc1cccc(-c2cc(C3CCN(C(=O)Nc4cccc(C)c4)CC3)[nH]n2)c1,"inconclusive: 44.7 µM [inhibitor, partial curve, poor fit]",–,–
COc1ncccc1-c1cc2c(nc1OC)nc(CC1CC1)n2C,"inconclusive: 63.1 µM [inhibitor, partial curve, poor fit]",–,–
CCCS(=O)(=O)N1CCC(c2noc(COc3ccc(C)cc3)n2)CC1,–,–,inactive: -14.5%
C=CCn1nc(C(=O)N2CCOCC2)c2c1CCC(NCC1(c3ccccc3)CCOCC1)C2 (stereo not given),–,–,inactive: -0.402%
O=C1CCN(CC(O)COc2ccccc2)c2ccccc2CN1C1CCCC1 (stereo not given),"inconclusive: 44.7 µM [inhibitor, partial curve, poor fit]",–,–
O=C(COc1ccc(-c2nnc3n2CCCC3)cc1)NCc1ccccc1,–,inactive,–
COc1cccc(CC(=O)N2CCC(c3nc(CCOc4ccc(F)cc4)no3)C2)c1 (stereo not given),"inconclusive: 44.7 µM [inhibitor, partial curve, poor fit]",–,–
Cc1cccc(-c2ccc3c(c2)C(=O)N2CC[C@H](NC(=O)C4CCCC4)[C@H]2C(=O)N3)c1C,"inconclusive: 112 µM [inhibitor, partial curve]",–,–
Cc1nn(-c2ccccc2)c2c1C(C1CC1)N(C1CCN(Cc3ccc(C#N)cc3)CC1)C2=O (stereo not given),–,–,inactive: -9.16%
Cc1cc(C)cc(-c2ccc(CN3CCCC(c4nc5ccc(F)cc5c(=O)[nH]4)C3)cc2)c1 (stereo not given),active: 39.8 µM and active: 17.8 µM,–,–
COc1cccc(-c2ccc(CN3CCCC(c4nc5ccc(C)cc5c(=O)[nH]4)C3)cc2)c1 (stereo not given),"active: 28.2 µM and inconclusive: 39.8 µM [inhibitor, partial curve, poor fit]",–,–
